B1: UGGUGCG (DNA:RNA)
RNA: GGGAGACCGGAAUUCAGAUUGUCCUGGUGCGUUAAAUCCCGUCGUAGCCACCA
DNA 1: CAATCTGAATTCCGGTCTCCC
DNA 2: TGGTGGCTACGACGGGATT
B2: GAAGUUC (DNA:RNA)
RNA: GGGAGACCGGAAUUCAGAUUGUCCGAAGUUCUUAAAUCCCGUCGUAGCCACCA
DNA 1: CAATCTGAATTCCGGTCTCCC
DNA 2: TGGTGGCTACGACGGGATT
B3: AUCAUGG (DNA:RNA)
RNA: B2 RNA with G25A, A26U, A27C, G28A, U30G, C31G
DNA 1: CAATCTGAATTCCGGTCTCCC
DNA 2: TGGTGGCTACGACGGGATT
B4: AUUGUAC (DNA:RNA)
RNA: B2 RNA with G25A, A26U, A27U, U30A
DNA 1: CAATCTGAATTCCGGTCTCCC
DNA 2: TGGTGGCTACGACGGGATT
B5: AGGUAGA (DNA:RNA)
RNA: B1 RNA with U25A, G29A, C30G, G31A
DNA 1: CAATCTGAATTCCGGTCTCCC
DNA 2: TGGTGGCTACGACGGGATT
B6: UCGCCCG (DNA:RNA)
RNA: B1 RNA with G26C, U28C, G29C
DNA 1: CAATCTGAATTCCGGTCTCCC
DNA 2: TGGTGGCTACGACGGGATT
B7: GCAUUUA (DNA:RNA)
RNA: B2 RNA with A26C, G28U, C31A
DNA 1: CAATCTGAATTCCGGTCTCCC
DNA 2: TGGTGGCTACGACGGGATT
B8: CCUUUCC (DNA:RNA)
RNA: B2 RNA with G25C, A26C, A27U, G28U, U30C
DNA 1: CAATCTGAATTCCGGTCTCCC
DNA 2: TGGTGGCTACGACGGGATT
B9: CAUGCAG (DNA:RNA)
RNA: B2 RNA with G25C, A27U, U29C, U30A, C31G
DNA 1: CAATCTGAATTCCGGTCTCCC
DNA 2: TGGTGGCTACGACGGGATT

The values that follow come from paper PMC9911399, “Two distinct binding modes provide the RNA-binding protein RbFox with extraordinary sequence specificity”.

Residue numbers refer to the chain shown, from its start. This is one part of the list.

This experiment addresses T1, RBFOX1 RRM (Homo sapiens, UniProt Q9NWB1 109-208).
T1 sequence: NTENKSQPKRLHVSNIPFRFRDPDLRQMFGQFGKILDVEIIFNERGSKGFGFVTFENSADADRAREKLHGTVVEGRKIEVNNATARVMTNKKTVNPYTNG
Briefly: EMSA; HiTS-Eq, 1 nM pool, 10 min; buffer printed only for the single-RNA assays: 10 mM Tris pH 7.5, 150 mM NaCl, 3.4 mM EDTA, 0.001% NP-40, 30 C. Conditions: tags: His6 N-terminal (pET28a); label: 5' 32P. The essentials:
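Purified wild-type or mutant RbFox RRM at increasing concentrations was equilibrated with 1 nM of 5′-radiolabelled RNA carrying 7 randomized nucleotides for 10 min in 50 µL. Unbound RNA was separated by 8% native PAGE and sequenced. Relative association constants came from read-count changes of each RNA species compared with the control reaction, normalised to the cognate motif.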
As to B1, the binding signal is 0.0274 KA relative to UGCAUGU.
The value for B2 was 0.0136 KA relative to UGCAUGU; that for B3 was 0.0063 KA relative to UGCAUGU; that for B4 was 0.0076 KA relative to UGCAUGU.
The value for B5 was 0.0121 KA relative to UGCAUGU.
The value for B6 was 0.0174 KA relative to UGCAUGU; that for B7 was 0.00335 KA relative to UGCAUGU.
As to B8, the binding signal was 0.0033 KA relative to UGCAUGU.
In the case of B9, the binding signal is 0.00941 KA relative to UGCAUGU.
